Data on 57 molecules can be found in article PMC4336329 (PLoS ONE, 2015).

The campaign covered roughly 310,000 compounds. About 14,000 (4.5%) showed an effect of 50% or more. The effect is printed as a negative number. The list shows a part of the results.
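Further: peak tail current of the secondary pulse compared with the same well before compound.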

Chain of human ether-à-go-go-related gene (hERG) potassium channel (Q12809 whole entry, looked up): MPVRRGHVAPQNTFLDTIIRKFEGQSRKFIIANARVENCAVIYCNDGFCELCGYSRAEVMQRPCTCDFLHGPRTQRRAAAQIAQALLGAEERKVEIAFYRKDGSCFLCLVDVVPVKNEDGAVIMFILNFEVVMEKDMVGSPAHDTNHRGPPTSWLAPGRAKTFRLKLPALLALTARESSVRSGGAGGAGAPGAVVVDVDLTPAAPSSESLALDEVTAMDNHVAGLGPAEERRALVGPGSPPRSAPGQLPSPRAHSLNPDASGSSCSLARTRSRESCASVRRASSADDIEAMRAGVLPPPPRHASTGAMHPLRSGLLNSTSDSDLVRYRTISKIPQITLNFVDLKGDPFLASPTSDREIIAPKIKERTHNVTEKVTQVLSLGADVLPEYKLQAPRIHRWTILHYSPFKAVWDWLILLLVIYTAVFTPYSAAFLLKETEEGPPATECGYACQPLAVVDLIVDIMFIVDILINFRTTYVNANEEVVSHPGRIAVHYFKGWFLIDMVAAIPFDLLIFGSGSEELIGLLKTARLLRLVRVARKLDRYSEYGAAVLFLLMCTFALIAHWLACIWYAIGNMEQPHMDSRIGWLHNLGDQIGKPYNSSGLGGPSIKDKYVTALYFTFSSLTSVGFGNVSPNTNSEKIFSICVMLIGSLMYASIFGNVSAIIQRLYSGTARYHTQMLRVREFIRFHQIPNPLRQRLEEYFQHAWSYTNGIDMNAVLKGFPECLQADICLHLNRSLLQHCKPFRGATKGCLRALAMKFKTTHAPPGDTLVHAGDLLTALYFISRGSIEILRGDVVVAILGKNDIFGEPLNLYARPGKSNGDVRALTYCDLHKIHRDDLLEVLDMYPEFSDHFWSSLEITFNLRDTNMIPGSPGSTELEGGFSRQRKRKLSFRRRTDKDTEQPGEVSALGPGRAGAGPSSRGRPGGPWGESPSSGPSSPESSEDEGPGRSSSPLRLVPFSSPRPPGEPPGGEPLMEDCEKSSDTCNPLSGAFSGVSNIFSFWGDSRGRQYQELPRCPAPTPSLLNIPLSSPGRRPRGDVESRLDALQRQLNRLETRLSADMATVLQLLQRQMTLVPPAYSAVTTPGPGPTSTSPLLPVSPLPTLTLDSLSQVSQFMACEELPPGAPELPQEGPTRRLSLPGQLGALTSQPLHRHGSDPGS

This assay concerns the target human ether-à-go-go-related gene (hERG) potassium channel (human, UniProt Q12809). As to the kind of experiment: primary screen, population patch clamp on CHO cells stably expressing hERG.
`Cc1cc(Br)ccc1NC(=O)c1ccco1`: the “hERG current change (%, negative = inhibition) at 10uM” value worked out at 0.934%. To `Cc1cccc(Cn2c(-c3ccc[nH]c3=O)nc3ccccc32)c1` belongs -14.9%; to `O=C(CN1C(=O)C2CC=CCC2C1=O)NC1CCCc2ccccc21` (stereo not drawn), 3.26%; to `CCNC(=O)c1ccccc1NC(=O)c1cccc(S(=O)(=O)N2CCOCC2)c1`, -71.5%. As to `O=C(Nc1ccc2[nH]c(=O)[nH]c2c1)c1ccc(Br)o1`, the “hERG current change (%, negative = inhibition) at 10uM” value is -4.71%. The result for `CC(C)NC(=O)c1onc(CSc2ccc(F)cc2)c1C(=O)O` reads 3.25%; that for `Cc1oc(-c2ccccc2Cl)nc1CSCC(=O)NC1CC1`, -16.1%. Take `Cn1c(SCC(=O)Nc2ccc(Br)cn2)nnc1C1CC1`: the “hERG current change (%, negative = inhibition) at 10uM” value was 10.3%. To `CCOC(=O)Cc1c(C)nc2cc(-c3ccc(Cl)cc3)[nH]n2c1=O` belongs 3.69%.

With `Cn1cc(CCC(=O)N2CCCC(C(=O)c3cccc4ccccc34)C2)cn1` (stereo not drawn), the “hERG current change (%, negative = inhibition) at 10uM” value was found to be 0.36%.

Turning to `Cc1cc(C)nc(NC(=O)CSc2ccccn2)n1`, the “hERG current change (%, negative = inhibition) at 10uM” value was found to be 1.08%. Take `CS(=O)(=O)N1CCN(c2ccc(NC(=S)NC(=O)c3ccccc3[N+](=O)[O-])cc2)CC1`: the “hERG current change (%, negative = inhibition) at 10uM” value is reported as 19.7%. The result for `CCOC(=O)C1=C(CSc2nc(-c3ccccc3)ccc2C#N)OC(N)=C(C#N)C1c1ccccc1` (stereo not drawn) reads 8.45%. The result for `COc1ccc(N(CC(=O)N2CCOCC2)S(=O)(=O)c2ccccc2)cc1Cl` reads -14.7%; that for `CC(=O)Nc1ccc(S(=O)(=O)N(C)CC(=O)NCCC2=CCCCC2)cc1`, 11.9%; that for `O=C(NCCc1ccccn1)c1ccc(OC2CCN(Cc3ccccn3)CC2)cc1`, 2.88%. The result for `O=C(CCC(=O)c1ccc(Cl)s1)Nc1ncccc1O` reads -28.2%; that for `CC(SCc1ccccc1)C(=O)N/N=C/c1cccs1` (stereo not drawn), 3.62%. `Cc1cc(Nc2cccc(Cl)c2)nc(-c2ccccc2O)n1`: the “hERG current change (%, negative = inhibition) at 10uM” value amounted to 12.5%. To `COc1ccc(C2c3c(c(C)c(C)oc3=O)Oc3c(C)c(C)oc(=O)c32)cc1` belongs 13.7%; to `CCn1nnc2cc(C(=O)Nc3cc(Cl)ccc3C)ccc21`, -16.7%; to `Cc1ccc2nc(CSc3nnc(-c4ccco4)n3-c3ccccc3)cc(=O)n2c1`, -21.1%. For the molecule `CCN1CCN(C(=O)c2cc3cc([N+](=O)[O-])ccc3oc2=O)CC1`, the “hERG current change (%, negative = inhibition) at 10uM” value is on record as -14.4%.

Take `CN(C)c1nc(Cl)cc(N2CCOCC2)n1`: the “hERG current change (%, negative = inhibition) at 10uM” value was 7.67%.

For the molecule `C=CCn1cnc2c(c1=O)c1nc3ccccc3nc1n2/N=C/c1cccc(OC)c1OC`, the “hERG current change (%, negative = inhibition) at 10uM” value is listed as -9.74%. The result for `Cc1ccc(OCc2nc(C#N)c(N3CCCC3)o2)cc1` reads -62.8%; that for `O=C(NC1CCCCC1)C(c1cccnc1)N(C(=O)CCl)c1ccccc1Cl` (stereo not drawn), -4.55%; that for `COC(=O)c1cc(Br)c(=O)n(CCN2CCCC2)c1`, 4.7%.

Take `CCCC(=O)N(Cc1cc(=O)[nH]c2ccccc12)c1ccccc1C`: the “hERG current change (%, negative = inhibition) at 10uM” value stood at 10.2%. `Oc1ccccc1N=Cc1c(O)ccc2oc3c(c12)CCCC3`: the “hERG current change (%, negative = inhibition) at 10uM” value is given as 18.1%. `CC(C)CCOc1ccc(C(=O)N2CCN(c3ncccn3)CC2)cc1`: the “hERG current change (%, negative = inhibition) at 10uM” value is on record as -9.05%. To `O=C1NC2(CCCCC2)C(=O)N1CCN1C(=O)c2ccccc2C1=O` belongs 31.2%; to `O=C(Oc1ccccc1-c1csnn1)c1cccs1`, 17.7%. To `CC(NC(=O)CCNC(=O)c1ccccc1Cl)c1ccc(-n2ccnc2)cc1` (stereo not drawn) belongs -17.8%; to `COc1ccc(OC)c(NC(=O)C2CCCN2S(=O)(=O)c2cccc3nsnc23)c1` (stereo not drawn), -8.13%.

For `Cc1ccc(-c2nnc(SCC(C)C)n2C)cc1`, the “hERG current change (%, negative = inhibition) at 10uM” value is given as -8.23%.

For `NC(=O)c1ccsc1NC(=O)COC(=O)c1cc(=O)[nH]c2ccccc12`, the “hERG current change (%, negative = inhibition) at 10uM” value is 9.1%. For the molecule `CSc1ccc(/C=N/N(C)S(=O)(=O)c2ccc(C)cc2)cc1`, the “hERG current change (%, negative = inhibition) at 10uM” value turned out to be 11.3%. Consider `Cc1ccc2nc(SCC(=O)NC3CCCc4ccccc43)[nH]c2c1` (stereo not drawn), for which the “hERG current change (%, negative = inhibition) at 10uM” value turned out to be 5.68%.

For the molecule `O=C(COc1ccccc1)Nc1cc(NC(=O)COc2ccccc2)cc(C(=O)O)c1`, the “hERG current change (%, negative = inhibition) at 10uM” value was 20.9%. `NC(=O)C1CCN(c2oc(/C=C/c3ccccc3)nc2S(=O)(=O)c2ccccc2)CC1`: the “hERG current change (%, negative = inhibition) at 10uM” value is recorded as -2.67%. The result for `CCC(C(=O)OC)n1cnc2c(nnn2-c2ccc(F)cc2)c1=O` (stereo not drawn) reads -14.2%. To `CCOC(=O)Cn1nnc2c(sc3nc4c(c(-c5ccccc5)c32)CCC4)c1=O` belongs 13.1%; to `COc1ccc(C/C(N)=N/OC(=O)C(c2ccccc2)c2ccccc2)cc1OC`, -14.5%.

For the molecule `Cc1cc(NC(=O)CCN2C(=O)/C(=C\c3ccccc3)SC2=S)no1`, the “hERG current change (%, negative = inhibition) at 10uM” value came to 4.42%. For `CC1=C/C(=N\OS(=O)(=O)c2ccccc2)C=CC1=O`, the “hERG current change (%, negative = inhibition) at 10uM” value is listed as -1.66%. To `CCC(=O)Nc1sc(Cc2ccc3c(c2)OCO3)c(C)c1C(N)=O` belongs 1.04%; to `O=C1N2CN(C(c3ccccc3)c3ccccc3)CN=C2SC1(CO)CO`, 6.01%. To `CC(C)CNC(=S)N(CCN(C)C)Cc1cc2cc3c(cc2[nH]c1=O)OCO3` belongs 0.354%; to `COC(=O)C1=C(c2ccccc2OCc2ccccc2)C[C@@H]2CC[C@H]1N2C(=O)NCCCOC(C)C`, -12.9%. To `O=C(O)C(=O)O.O=S(=O)(c1ccc(Cl)cc1)N1CCN(Cc2ccncc2)CC1` belongs -51.5%.

Regarding `CN1C(=O)N(C)C(NC(=O)Nc2ccccc2)C1NC(=O)Nc1ccccc1` (stereo not drawn), the “hERG current change (%, negative = inhibition) at 10uM” value was 9.28%.

As to `OCCOc1ccccc1`, the “hERG current change (%, negative = inhibition) at 10uM” value is 12.4%. To `CCOC(=O)N1CCN(C(=O)C(CC)c2ccccc2)CC1` (stereo not drawn) belongs 5.57%. As for `C=CCNC(=S)/C(=C(/[O-])c1ccc([N+](=O)[O-])cc1)[n+]1ccccc1`, the “hERG current change (%, negative = inhibition) at 10uM” value was determined as 4.73%. The result for `COC(=O)c1ccc(-n2nnnc2SCc2nn[nH]n2)cc1` reads 16.4%.

As to `Cc1ccc(NC(=O)C2CCN(S(=O)(=O)c3ccc4c(c3)CCCC(=O)N4)CC2)cc1N(C)C`, the “hERG current change (%, negative = inhibition) at 10uM” value is reported as -14.7%.
